Measured values as given in patent publication US20220372458A1 (PALLEON PHARMACEUTICALS, published 2022).

What was measured:
recombinant human PD-L1 [1] = target: T1, recombinant human PD-L1 (human, UniProt Q9NZQ7 part only, limits assumed); assay: ForteBio Octet (BLI), recombinant human PD-L1; sensor format for the table not stated
T1 construct: Used in the ForteBio Octet assays; also called PD-L1 antigen

[2] = target: human PD-L1 expressed on engineered CHO-K1 cells (human, UniProt Q9NZQ7); assay: cell-based or functional assay
recombinant human PD-L1 [3] = target: T1, recombinant human PD-L1; assay: ForteBio Octet (BLI), recombinant human PD-L1
T1 sequence (Q9NZQ7 19-238 limits assumed): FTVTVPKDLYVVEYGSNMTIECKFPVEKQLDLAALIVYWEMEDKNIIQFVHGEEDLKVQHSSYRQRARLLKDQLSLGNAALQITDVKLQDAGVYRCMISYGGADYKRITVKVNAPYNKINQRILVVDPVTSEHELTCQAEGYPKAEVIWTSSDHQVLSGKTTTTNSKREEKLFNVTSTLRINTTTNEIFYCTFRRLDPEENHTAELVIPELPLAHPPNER

| Kd (recombinant human PD-L1 [1]) [nM] | koff (recombinant human PD-L1 [1]) [s⁻¹] | kon (recombinant human PD-L1 [1]) [M⁻¹ s⁻¹] | EC50 of fold induction of luminescence (curve fit), PD-1/PD-L1 Blockade Bioassay with PD-L1 CHO-K1 cells and PD-1 Jurkat NFAT-luciferase cells [2] [µg/mL] | Kd (recombinant human PD-L1 [3]) [nM] | koff (recombinant human PD-L1 [3]) [s⁻¹] | kon (recombinant human PD-L1 [3]) [M⁻¹ s⁻¹] | Binder |
| --- | --- | --- | --- | --- | --- | --- | --- |
| 0.747 | 0.000212 | 302000 | 1.05 | – | – | – | Janus #2 (other) light: QSALTQPASVSGSPGQSITISCTGTSSDVGGYNYVSWYQQHPGKAPKLMIYDVSNRPSGVSNRFSGSKSGNTASLTISGLQAEDEADYYCSSYTSSSTRVFGTGTKVTVLGQPKANPTVTLFPPSSEELQANKATLVCLISDFYPGAVTVAWKADGSPVKAGVETTKPSKQSNNKYAASSYLSLTPEQWKSHRSYSCQVTHEGSTVEKTVAPTECS heavy: EVQLLESGGGLVQPGGSLRLSCAASGFTFSSYIMMWVRQAPGKGLEWVSSIYPSGGITFYADTVKGRFTISRDNSKNTLYLQMNSLRAEDTAVYYCARIKLGTVTTVDYWGQGTLVTVSSASTKGPSVFPLAPSSKSTSGGTAALGCLVKDYFPEPVTVSWNSGALTSGVHTFPAVLQSSGLYSLSSVVTVPSSSLGTQTYICNVNHKPSNTKVDKKV[human IgG1 Fc with T366Y (EU numbers) not given here] DASLPYLQKESVFQSGAHAYRIPALLYLPGQQSLLAFAEQRASKKDEHAELIVLRRGDYDAGTHQVQWQAQEVVAQARLDGHRSMNPCPLYDEQTGTLFLFFIAIPGQVTEQQQLQTRANVTRLCQVTSTDHGRTWSSPRDLTDAAIGPAYREWSTFAVGPGHCLQLHDRARSLVVPAYAYRKLHPKQRPIPSAFCFLSHDHGRTWARGHFVAQDTLECQVAEVETGEQRVVTLNARSHLRARVQAQSTNDGLDFQESQLVKKLVEPPPQGCQGSVISFPSPRSGPGSPAQWLLYTHPTHSWQRADLGAYLNPRPPAPEAWSEPVLLAKGSAAYSDLQSMGTGPDGSPLFGCLYEANDYEEIVFLMFTLKQAFPAEYLPQGGGGSGGGGS[human IgG1 Fc with Y407T (EU numbers) not given here] |
| – | – | – | – | 1.28 | 0.000139 | 129000 | Janus #1 (other, Antibody sialidase conjugate with one avelumab arm (light chain plus heavy chain) and one sialidase-Fc arm; The sialidase is human Neu2 with M1D, V6Y, P62G, A93E, I187K and C332A, joined to Fc by a GGGGS linker; The two Fc domains carry knob (T366Y) / hole (Y407T) mutations; also called Ave-Janus; Janus Antibody Sialidase Conjugate (ASC)) light: QSALTQPASVSGSPGQSITISCTGTSSDVGGYNYVSWYQQHPGKAPKLMIYDVSNRPSGVSNRFSGSKSGNTASLTISGLQAEDEADYYCSSYTSSSTRVFGTGTKVTVLGQPKANPTVTLFPPSSEELQANKATLVCLISDFYPGAVTVAWKADGSPVKAGVETTKPSKQSNNKYAASSYLSLTPEQWKSHRSYSCQVTHEGSTVEKTVAPTECS heavy: EVQLLESGGGLVQPGGSLRLSCAASGFTFSSYIMMWVRQAPGKGLEWVSSIYPSGGITFYADTVKGRFTISRDNSKNTLYLQMNSLRAEDTAVYYCARIKLGTVTTVDYWGQGTLVTVSSASTKGPSVFPLAPSSKSTSGGTAALGCLVKDYFPEPVTVSWNSGALTSGVHTFPAVLQSSGLYSLSSVVTVPSSSLGTQTYICNVNHKPSNTKVDKKV[human IgG1 Fc with T366Y (EU numbers) not given here] DASLPYLQKESVFQSGAHAYRIPALLYLPGQQSLLAFAEQRASKKDEHAELIVLRRGDYDAGTHQVQWQAQEVVAQARLDGHRSMNPCPLYDEQTGTLFLFFIAIPGQVTEQQQLQTRANVTRLCQVTSTDHGRTWSSPRDLTDAAIGPAYREWSTFAVGPGHCLQLHDRARSLVVPAYAYRKLHPKQRPIPSAFCFLSHDHGRTWARGHFVAQDTLECQVAEVETGEQRVVTLNARSHLRARVQAQSTNDGLDFQESQLVKKLVEPPPQGCQGSVISFPSPRSGPGSPAQWLLYTHPTHSWQRADLGAYLNPRPPAPEAWSEPVLLAKGSAAYSDLQSMGTGPDGSPLFGCLYEANDYEEIVFLMFTLKQAFPAEYLPQGGGGS[human IgG1 Fc with Y407T (EU numbers) not given here] |
| – | – | – | 1.13 | – | – | – | Bunk #1 (other) light: QSALTQPASVSGSPGQSITISCTGTSSDVGGYNYVSWYQQHPGKAPKLMIYDVSNRPSGVSNRFSGSKSGNTASLTISGLQAEDEADYYCSSYTSSSTRVFGTGTKVTVLGQPKANPTVTLFPPSSEELQANKATLVCLISDFYPGAVTVAWKADGSPVKAGVETTKPSKQSNNKYAASSYLSLTPEQWKSHRSYSCQVTHEGSTVEKTVAPTECS heavy: EVQLLESGGGLVQPGGSLRLSCAASGFTFSSYIMMWVRQAPGKGLEWVSSIYPSGGITFYADTVKGRFTISRDNSKNTLYLQMNSLRAEDTAVYYCARIKLGTVTTVDYWGQGTLVTVSSASTKGPSVFPLAPSSKSTSGGTAALGCLVKDYFPEPVTVSWNSGALTSGVHTFPAVLQSSGLYSLSSVVTVPSSSLGTQTYICNVNHKPSNTKVDKKV[human IgG1 Fc with T366Y (EU numbers) not given here]GGGGSGGGGSGGGGSQSALTQPASVSGSPGQSITISCTGTSSDVGGYNYVSWYQQHPGKAPKLMIYDVSNRPSGVSNRFSGSKSGNTASLTISGLQAEDEADYYCSSYTSSSTRVFGTGTKVTVLGQPKAGGGGSGGGGSGGGGSEVQLLESGGGLVQPGGSLRLSCAASGFTFSSYIMMWVRQAPGKGLEWVSSIYPSGGITFYADTVKGRFTISRDNSKNTLYLQMNSLRAEDTAVYYCARIKLGTVTTVDYWGQGTLVTVSS DASLPYLQKESVFQSGAHAYRIPALLYLPGQQSLLAFAEQRASKKDEHAELIVLRRGDYDAGTHQVQWQAQEVVAQARLDGHRSMNPCPLYDEQTGTLFLFFIAIPGQVTEQQQLQTRANVTRLCQVTSTDHGRTWSSPRDLTDAAIGPAYREWSTFAVGPGHCLQLHDRARSLVVPAYAYRKLHPKQRPIPSAFCFLSHDHGRTWARGHFVAQDTLECQVAEVETGEQRVVTLNARSHLRARVQAQSTNDGLDFQESQLVKKLVEPPPQGCQGSVISFPSPRSGPGSPAQWLLYTHPTHSWQRADLGAYLNPRPPAPEAWSEPVLLAKGSAAYSDLQSMGTGPDGSPLFGCLYEANDYEEIVFLMFTLKQAFPAEYLPQGGGGS[human IgG1 Fc with Y407T (EU numbers) not given here] |
